Results published in patent US20250170268A1, “METHODS AND TOOLS FOR CONJUGATION TO ANTIBODIES” (priority 2022, published 2025).
Changes are numbered by the printed parent chain. “Also recorded” adds a separate entry of the source.

How the values were obtained:
[1] = Pharmacokinetic study in human FcRn transgenic mice; details: for C0 relative to theoretical maximal concentration: assuming dilution in 40 mL/kg plasma volume
[2] = tested on: CEACAM5-negative MDA-MB-231 cells in the presence of CEACAM5-positive SK-CO-1; experiment: Bystander assay, co-culture of antigen-negative and antigen-positive cells; assay type: cell-based, human; details: for non-specific effect on MDA-MB-231 only controls in bystander assay: 1E-9M, MDA-MB-231 cells alone; for bystander effect against CEACAM5-negative MDA-MB-231 cells: ADC concentration of 1 nM, co-culture with SK-CO-1
[3] = tested on: CEACAM5-positive SK-CO-1 cells; experiment: Cell viability assay (Cell Titer-Glo, six days) on SK-CO-1; assay type: cell-based, human; details: at the highest tested compound concentration
Protocol: (§1) Cytotoxicity effects of the ADC on the cancer cell lines were measured by cell viability assays. Cells were seeded in a volume of 90 μL in 96-well plates the day before treatment. Test compounds (ADCs or free payloads) were formulated at 10-fold the starting concentration in cell culture medium. Test compounds were serial diluted (1:4) and 10 μL of each dilution was added to the cells in triplicates. Plates were cultured at 37° C. in a CO2 incubator for six days. For cell viability measurement, Cell Titer-Glo® reagent (Promega™ Corp, Madison, WI) was added to each well, and plates processed according to the manufacturer's instructions. Luminescence signals were measured using a Varioskan plate reader (Thermo Fisher). Luminescence readings were converted to % viability relative to untreated cells. Data was fitted with non-linear regression analysis, using log (inhibitor) vs. response, variable slope, 4-parameter fit equation using Genedata Screener or GraphPad Prism. Data is shown as % relative cell viability vs. molar compound concentration, error bars indicating standard deviation (SD) of duplicates or triplicates. Geometric mean values of IC50s derived from multiple experiments were calculated.
(§2) A fold reduction in IC50, defined as a S[…], was calculated by dividing the IC50 against CEACAM5-negative MDA-MB-231 cells by the IC50 against each CEACAM5-positive cell line (see Table 6). […]

[4] = tested on: CEACAM5-positive SNU-16 cells; experiment: Cell viability assay (Cell Titer-Glo, six days) on SNU-16; assay type: cell-based, human; details: at the highest tested compound concentration
Protocol: as §1, §2

[5] = tested on: human pancreatic, cell line derived xenograft model BxPC3; experiment: BxPC3 xenograft efficacy study; assay type: in vivo, mice (Hsd: Athymic Nude-Foxn1nu); details: single i.v. treatment day 0; ADC1-M 5 mg/kg; ADC2-M 5 mg/kg or 10 mg/kg
Protocol: Efficacy of ADC1-M and ADC2-M has been evaluated in the human pancreatic, cell line derived xenograft model BxPC3 (ATCC, CRL-1687). 5×10^6 BxPC3 cells were injected subcutaneously into the right flank of six to eight weeks old immunodeficient female mice (Hsd: Athymic Nude-Foxn1nu, Envigo). When tumors reached a mean volume of 85 mm^3, 10 mice/group were treated once intravenously with vehicle (saline solution) or ADC1-M (5 mg/kg; day 0) or with ADC2-M (5 mg/kg or 10 mg/kg; day 0). Tumor length (L) and width (W) were measured with calipers and tumor volumes were calculated using L×(W^2)/2.

[6] = tested on: CEACAM5-positive MKN-45 cells; experiment: Cell viability assay (Cell Titer-Glo, six days) on MKN-45; assay type: cell-based, human; details: at the highest tested compound concentration
Protocol: as §1, §2

[7] = tested on: CEACAM5-negative MDA-MB-231 cells; experiment: Cell viability assay (Cell Titer-Glo, six days) on MDA-MB-231; assay type: cell-based, human
Protocol: as §1, §2

[8] = tested on: CEACAM5-positive LS174T cells; experiment: Cell viability assay (Cell Titer-Glo, six days) on LS174T; assay type: cell-based, human; details: at the highest tested compound concentration
Protocol: as §1

[9] = tested on: CEACAM5-positive cell lines; experiment: Cell viability assay, CEACAM5-positive cell lines taken together; assay type: cell-based, human
Protocol: as §1, §2

[10] = tested on: human pancreatic adenocarcinoma cell line-derived xenograft model HPAF-II; experiment: HPAF-II xenograft efficacy study; assay type: in vivo, mice (Hsd: Athymic Nude-Foxn1nu); details: for anti-tumor effect, HPAF-II xenograft, 1 or 6 mg/kg: single i.v. treatment at 1 or 6 mg/kg; for anti-tumor effect, HPAF-II xenograft, 1 mg/kg: single i.v. treatment with 1 mg/kg; for anti-tumor effect, HPAF-II xenograft, higher dosage: single i.v. treatment, higher dosage (6 mg/kg)
Protocol: Efficacy of ADC1-M and ADC3-M in comparison to ADC8 was evaluated in the human pancreatic adenocarcinoma cell line-derived xenograft model HPAF-II (ATCC, CRL-1997). Six to eight weeks old immunodeficient female mice (Hsd: Athymic Nude-Foxn1nu, Envigo) were injected subcutaneously in the right flank with 5×10^6 HPAF-II cells. When tumors reached a mean volume of 150 mm^3, 10 mice/group were treated once intravenously with ADC1-M (1 mg/kg or 6 mg/kg) or with ADC3-M (1 mg/kg or 6 mg/kg) or with ADC8 (1 mg/kg or 6 mg/kg). Tumor length (L) and width (W) were measured with calipers and tumor volumes were calculated using the formula L×W^2/2.

[11] = 3 mg/kg single i.v., HuFcRn mice

B1: ADC6-M (conjugate)
heavy: EVQLQESGPGLVKPSQTLSLTCTVSDGSVSRGGYYLTWIRQHPGKGLEWIGYIYYSGSTYFNPSLRSRVTMSVDTSKNQFSLKLSSVTAADTAVYYCARGIAVAPFDYWGQGTLVTVSSASTKGPSVFPLAPSSKSTSGGTAALGCLVKDYFPEPVTVSWNSGALTSGVHTFPAVLQSSGLYSLSSVVTVPSSSLGTQTYICNVNHKPSNTKVDKRV[letters of human IgG1 Fc with changes left out]
light: EIVLTQSPATLSVSPGERATLSCRTSQSVRSNLAWYQQKPGQAPRLLIYAASTRATGIPARFSGSGSGTEFTLTISSLQSEDFAVYYCQQYTNWPFTFGPGTKVDIKRTVAAPSVFIFPPSDEQLKSGTASVVCLLNNFYPREAKVQWKVDNALQSGNSQESVTEQDSKDSTYSLSSTLTLSKADYEKHKVYACEVTHQGLSSPVTKSFNRGEC
- AUCinf [1, 11]: 2850 µg·h/mL
- AUClast [1, 11]: 2850 µg·h/mL
- Tlast (h) [1, 11]: up to 336 h
- non-specific effect on MDA-MB-231 only controls in bystander assay [2]: no non-specific effect
- bystander effect against CEACAM5-negative MDA-MB-231 cells [2]: potent bystander effect; also recorded: much more potent bystander effect

B2: ADC2-M (conjugate)
heavy: EVQLQESGPGLVKPSQTLSLTCTVSDGSVSRGGYYLTWIRQHPGKGLEWIGYIYYSGSTYFNPSLRSRVTMSVDTSKNQFSLKLSSVTAADTAVYYCARGIAVAPFDYWGQGTLVTVSSASTKGPSVFPLAPSSKSTSGGTAALGCLVKDYFPEPVTVSWNSGALTSGVHTFPAVLQSSGLYSLSSVVTVPSSSLGTQTYICNVNHKPSNTKVDKRVEPKSCDKTHTCPPCPAPEAAGGPSVFLFPPKPKDTLYITREPEVTCVVVDVSHEDPEVKFNWYVDGVEVHNAKTKPREEQYNSTYRVVSVLTVLHQDWLNGKEYKCKVSNKALPAPIEKTISKAKGQPREPQVYTLPPSREEMTKNQVSLTCLVKGFYPSDIAVEWESNGQPENNYKTTPPVLDSDGSFFLYSKLTVDKSRWQQGNVFSCSVMHEALHNHYTQKSLSLSPG
light: EIVLTQSPATLSVSPGERATLSCRTSQSVRSNLAWYQQKPGQAPRLLIYAASTRATGIPARFSGSGSGTEFTLTISSLQSEDFAVYYCQQYTNWPFTFGPGTKVDIKRTVAAPSVFIFPPSDEQLKSGTASVVCLLNNFYPREAKVQWKVDNALQSGNSQESVTEQDSKDSTYSLSSTLTLSKADYEKHKVYACEVTHQGLSSPVTKSFNRGECGGTLQSPP
- Maximal effect compared to untreated controls, SK-CO-1 [3]: (−92%)
- Maximal effect compared to untreated controls, SNU-16 [4]: (−78%)
- AUCinf [1, 11]: 10200 µg·h/mL
- AUClast [1, 11]: 8360 µg·h/mL
- Vss [1, 11]: 0.0877 L/kg
- %_Ext (%) ([1]; % of extrapolated AUCinf, 3 mg/kg single i.v., HuFcRn mice): 18.4%
- C0 relative to theoretical maximal concentration [1]: slightly lower than theoretical maximal concentration
- PK profile ([1]; single iv administration of 3 mg/kg in transgenic mice): best PK profile
- non-specific effect on MDA-MB-231 only controls in bystander assay [2]: no non-specific effect
- bystander effect against CEACAM5-negative MDA-MB-231 cells [2]: potent bystander effect; also recorded: much more potent bystander effect
- anti-tumor effect, BxPC3 xenograft [5]: significant anti-tumor effect
- Maximal effect compared to untreated controls, MKN-45 [6]: (−80%)
- Maximal effect compared to untreated controls, MDA-MB-231 ([7]; at the highest tested compound concentration): (−16%)
- effects on CEACAM5-negative MDA-MB-231 cell viability ([7]; viability assay): minor
- Maximal effect compared to untreated controls, LS174T [8]: (−67%)
- in vitro potency against CEACAM5-positive cell lines [9]: sub-nanomolar to single digit nanomolar

B3: ADC3-M (conjugate)
heavy: B2 heavy with K224R
light: B2 light
modifications: GGG-glucuronide-exatecan, DAR 4
- anti-tumor effect, HPAF-II xenograft, 1 or 6 mg/kg [10]: significant anti-tumor effect
- anti-tumor effect, HPAF-II xenograft, 1 mg/kg [10]: mild and temporary anti-tumor effect
- anti-tumor effect, HPAF-II xenograft, higher dosage [10]: much stronger anti-tumor effect

B4: ADC1-M (conjugate)
heavy: B2 heavy
light: B1 light
- AUCinf [1, 11]: 2590 µg·h/mL
- AUClast [1, 11]: 2580 µg·h/mL
- C0 relative to theoretical maximal concentration [1]: slightly lower than theoretical maximal concentration
- non-specific effect on MDA-MB-231 only controls in bystander assay [2]: no non-specific effect
- bystander effect against CEACAM5-negative MDA-MB-231 cells [2]: potent bystander effect; also recorded: much more potent bystander effect
- anti-tumor effect, BxPC3 xenograft [5]: significant anti-tumor effect
- anti-tumor effect, HPAF-II xenograft, 1 or 6 mg/kg [10]: significant anti-tumor effect
- anti-tumor effect, HPAF-II xenograft, 1 mg/kg [10]: mild and temporary anti-tumor effect
- anti-tumor effect, HPAF-II xenograft, higher dosage [10]: much stronger anti-tumor effect

B5: ADC7-M (conjugate)
heavy: EVQLQESGPGLVKPSQTLSLTCTVSDGSVSRGGYYLTWIRQHPGKGLEWIGYIYYSGSTYFNPSLRSRVTMSVDTSKNQFSLKLSSVTAADTAVYYCARGIAVAPFDYWGQGTLVTVSSASTKGPSVFPLAPSSKSTSGGTAALGCLVKDYFPEPVTVSWNSGALTSGVHTFPAVLQSSGLYSLSSVVTVPSSSLGTQTYICNVNHKPSNTKVDKRV[letters of human IgG1 Fc with changes left out]
light: B2 light
- AUCinf [1, 11]: 6140 µg·h/mL
- AUClast [1, 11]: 5720 µg·h/mL
- non-specific effect on MDA-MB-231 only controls in bystander assay [2]: no non-specific effect
- bystander effect against CEACAM5-negative MDA-MB-231 cells [2]: potent bystander effect; also recorded: much more potent bystander effect
- in vitro potency against CEACAM5-positive cell lines [9]: comparable results like the respective ADC with YTE mutation (ADC2-M)
